We go through 2 substances from article PMC5838220.

The chains behind the UniProt entries cited, without tags or fusion partners.
UniProt Q7L523: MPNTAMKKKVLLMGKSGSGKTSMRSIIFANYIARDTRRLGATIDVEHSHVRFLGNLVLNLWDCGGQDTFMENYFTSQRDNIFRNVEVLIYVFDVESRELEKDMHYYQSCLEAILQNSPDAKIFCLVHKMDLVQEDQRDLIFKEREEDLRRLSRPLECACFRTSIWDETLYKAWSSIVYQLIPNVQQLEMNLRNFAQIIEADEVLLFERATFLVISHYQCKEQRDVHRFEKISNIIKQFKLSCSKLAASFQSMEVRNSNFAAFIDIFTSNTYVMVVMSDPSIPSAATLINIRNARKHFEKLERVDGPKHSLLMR
UniProt Q9HB90: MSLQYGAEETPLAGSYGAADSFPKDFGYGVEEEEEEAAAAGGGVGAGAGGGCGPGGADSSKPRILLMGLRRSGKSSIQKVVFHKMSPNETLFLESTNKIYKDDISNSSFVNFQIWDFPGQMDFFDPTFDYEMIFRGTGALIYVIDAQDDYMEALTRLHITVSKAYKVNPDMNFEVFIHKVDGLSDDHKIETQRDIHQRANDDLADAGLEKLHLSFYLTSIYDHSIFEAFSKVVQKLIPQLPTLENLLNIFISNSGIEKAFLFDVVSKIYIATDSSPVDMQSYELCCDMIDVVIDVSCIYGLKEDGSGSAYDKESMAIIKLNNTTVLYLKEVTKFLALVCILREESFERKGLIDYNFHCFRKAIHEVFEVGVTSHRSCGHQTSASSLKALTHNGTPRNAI
UniProt Q9UBN7: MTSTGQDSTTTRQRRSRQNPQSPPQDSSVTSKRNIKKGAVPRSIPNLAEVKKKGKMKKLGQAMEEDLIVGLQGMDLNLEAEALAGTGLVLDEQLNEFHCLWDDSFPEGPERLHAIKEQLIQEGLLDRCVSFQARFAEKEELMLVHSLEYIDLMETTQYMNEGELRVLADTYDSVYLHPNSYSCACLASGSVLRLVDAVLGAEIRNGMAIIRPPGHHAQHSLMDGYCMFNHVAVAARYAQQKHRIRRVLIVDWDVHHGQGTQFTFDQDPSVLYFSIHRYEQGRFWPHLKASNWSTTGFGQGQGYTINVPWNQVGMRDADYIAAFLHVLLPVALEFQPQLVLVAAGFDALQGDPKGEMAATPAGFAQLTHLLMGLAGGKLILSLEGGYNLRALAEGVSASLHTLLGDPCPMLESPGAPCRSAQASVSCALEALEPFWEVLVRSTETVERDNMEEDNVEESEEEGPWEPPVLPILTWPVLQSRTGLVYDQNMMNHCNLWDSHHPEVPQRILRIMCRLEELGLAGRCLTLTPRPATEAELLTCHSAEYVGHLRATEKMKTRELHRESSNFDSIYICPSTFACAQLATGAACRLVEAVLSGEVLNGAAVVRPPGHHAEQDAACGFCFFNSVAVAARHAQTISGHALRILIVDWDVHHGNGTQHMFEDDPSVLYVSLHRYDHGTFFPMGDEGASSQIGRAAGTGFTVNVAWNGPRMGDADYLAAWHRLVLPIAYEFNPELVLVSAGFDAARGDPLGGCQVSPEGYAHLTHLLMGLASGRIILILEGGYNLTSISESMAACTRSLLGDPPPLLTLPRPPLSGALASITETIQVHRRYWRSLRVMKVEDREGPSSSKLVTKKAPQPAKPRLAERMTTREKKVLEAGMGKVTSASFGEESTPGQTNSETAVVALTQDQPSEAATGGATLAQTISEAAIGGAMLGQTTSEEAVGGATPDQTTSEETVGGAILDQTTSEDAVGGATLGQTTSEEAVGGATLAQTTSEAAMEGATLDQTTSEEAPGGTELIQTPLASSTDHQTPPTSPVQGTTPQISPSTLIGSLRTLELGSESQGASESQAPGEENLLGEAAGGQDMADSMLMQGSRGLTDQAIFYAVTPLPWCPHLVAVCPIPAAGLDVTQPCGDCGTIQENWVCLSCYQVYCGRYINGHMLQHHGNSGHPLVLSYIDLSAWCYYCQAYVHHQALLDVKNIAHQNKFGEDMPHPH
UniProt Q8IVH8: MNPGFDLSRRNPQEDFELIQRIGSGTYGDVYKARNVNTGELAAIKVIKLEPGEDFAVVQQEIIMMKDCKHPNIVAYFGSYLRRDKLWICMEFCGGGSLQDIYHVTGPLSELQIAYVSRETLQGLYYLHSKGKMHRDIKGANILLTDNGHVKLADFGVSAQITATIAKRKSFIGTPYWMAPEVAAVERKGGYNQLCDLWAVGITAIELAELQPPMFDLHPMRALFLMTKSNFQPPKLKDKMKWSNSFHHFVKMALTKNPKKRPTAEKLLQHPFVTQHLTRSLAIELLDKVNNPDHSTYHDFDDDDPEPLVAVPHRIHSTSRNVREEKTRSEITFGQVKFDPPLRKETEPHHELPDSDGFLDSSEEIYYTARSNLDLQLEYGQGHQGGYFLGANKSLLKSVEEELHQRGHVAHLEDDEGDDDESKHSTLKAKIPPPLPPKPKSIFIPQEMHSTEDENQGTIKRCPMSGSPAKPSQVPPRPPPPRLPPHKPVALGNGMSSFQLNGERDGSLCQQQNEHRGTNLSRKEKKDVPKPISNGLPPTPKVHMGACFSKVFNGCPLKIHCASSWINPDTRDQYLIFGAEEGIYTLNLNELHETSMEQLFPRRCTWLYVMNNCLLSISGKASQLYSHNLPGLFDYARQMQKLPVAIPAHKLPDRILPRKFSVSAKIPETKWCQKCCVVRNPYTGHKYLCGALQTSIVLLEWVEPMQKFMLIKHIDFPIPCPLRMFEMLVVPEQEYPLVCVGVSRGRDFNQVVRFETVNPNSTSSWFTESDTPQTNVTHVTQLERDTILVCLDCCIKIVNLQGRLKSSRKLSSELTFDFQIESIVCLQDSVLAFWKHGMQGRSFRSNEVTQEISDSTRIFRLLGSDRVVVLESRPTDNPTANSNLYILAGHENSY

Assay [1] addresses endogenous TFEB (human (endogenous in HEK293A)) (UniProt P19484). Put plainly: co-IP; HEK293A cells transfected with FLAG-tagged WT-MAP4K3, KD-MAP4K3 or HDAC6; endogenous TFEB immunoprecipitated and blotted for MAP4K3 (text; the legend says FLAG immunoprecipitates).
Assay [2] addresses Rag A (human (endogenous in HEK293A)) (UniProt Q7L523). Description: co-IP; RagC or RagA immunoprecipitates from lysates of HEK293A cells transfected with FLAG-tagged proteins, immunoblotted; for RagA cells in complete media or amino acid starved. A general note: Immunoblotting shows a protein as a band on a membrane.
Assay [3] has as its target Rag C (human (endogenous in HEK293A)) (UniProt Q9HB90). The assay is described as above.
Assay [4] has as its target T1, recombinant GST-TFEB amino acids 1-37 (UniProt P19484).
T1 sequence: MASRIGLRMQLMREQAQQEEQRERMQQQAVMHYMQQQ
Put plainly: pull-down; FLAG immunoprecipitates from transfected HEK293A incubated with recombinant GST-TFEB aa 1-37 or GST alone, then mixed with beads; eluate of GST-bound fractions blotted with anti-FLAG and anti-GST; both purified.

The target in assay [5] is recombinant TFEB generated by in vitro transcription and translation (UniProt P19484). Description: pull-down; FLAG immunoprecipitates (purified FLAG-tagged proteins from transfected HEK293A) incubated with in vitro transcribed and translated TFEB; pulled down with an anti-TFEB antibody, immunoblotted; only the binder purified.

These are yes or no findings as the source states them, for the method shown. For part of these data: In cells and extracts the contact can be indirect. Some binding calls cover weakened binding; strength is not graded here. For part of these data: Where a sequence is shown, tags or fusion partners need not be part of it.

Consider HDAC6-FLAG (from UniProt Q9UBN7 1-1215), for which the binding result in assay [1] is “no binding”.

Regarding “WT-MAP4K3-FLAG (from UniProt Q8IVH8 1-894) (enzyme)”, the binding result in assay [2], in assay [3], in assay [1], in assay [4] and in assay [5] was “binds” each time.
